Measured values: PubChem BioAssay AID1745853 (National Center for Advancing Translational Sciences (NCATS), 2022)
This is one part of the list. Further columns of the screen follow, without active or inactive calls.

Experiments:
Experiment in all cases: Primary Screen for Target Class Profiling of Small Molecule Inhibitors of Methyltransferases
[1] = biological target: Glycine N-methyltransferase (Homo sapiens) (UniProt Q14749); details: purified enzyme, MTase-Glo SAH luminescence; measured here: GNMT inhibition; at 40 µM; stronger effect = lower value
Method in brief: (§1)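 Each enzyme was reacted with SAM and its substrate, with compounds tested once at 40 uM; SAH formed was read by MTase-Glo luminescence.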

[2] = biological target: Guanidinoacetate N-methyltransferase (Homo sapiens) (UniProt Q14353); details: purified enzyme, MTase-Glo SAH luminescence; measured here: GAMT inhibition; at 40 µM; stronger effect = lower value
Method in brief: as §1

[3] = biological target: Histamine N-methyltransferase (Homo sapiens) (UniProt P50135); details: purified enzyme, MTase-Glo SAH luminescence; measured here: HNMT inhibition; at 40 µM; stronger effect = lower value
Method in brief: as §1

[4] = biological target: Nicotinamide N-methyltransferase (Homo sapiens) (UniProt P40261); details: purified enzyme, MTase-Glo SAH luminescence; measured here: NNMT inhibition; at 40 µM; stronger effect = lower value
Method in brief: as §1

[5] = biological target: Phenylethanolamine N-methyltransferase (Homo sapiens) (UniProt P11086); details: purified enzyme, MTase-Glo SAH luminescence; measured here: PNMT inhibition; at 40 µM; stronger effect = lower value
Method in brief: as §1
% is set by controls: 0 for no effect and ±100 for the full control effect.

| SMILES | activity change, negative = inhibition [1] | activity change, negative = inhibition [2] | activity change, negative = inhibition [3] | activity change, negative = inhibition [4] | activity change, negative = inhibition [5] |
| --- | --- | --- | --- | --- | --- |
| C/C(=C\CCC(C(=O)O)C1CCC2(C)C3=C(CCC12C)C1(C)CCC(=O)C(C)(C)C1CC3)C(=O)O (stereo not given) | 0% | 2.75% | 4.75% | -11.3% | 3.95% |
| COc1ccc(-c2cc(C[C@@H]3CC[C@H](O)[C@@H](CNC4CCN(C(C)=O)CC4)O3)no2)cc1 | -4.65% | -3.13% | -1.14% | -5.37% | -1.25% |
| COc1ccc(CNC(=O)CCc2nnc3n(CCCOC(C)C)c(=O)c4ccccc4n23)cc1 | -4.67% | -2.12% | 2.1% | -0.686% | -10.2% |
| CCOc1ccc(CCNC(=O)CCc2nnc3n(CCC(C)C)c(=O)c4ccccc4n23)cc1 | -8.11% | 3.22% | -1.1% | -13.9% | -5.1% |
| CC1CCCC(NC(=O)C2(C)Cn3c(cc4occc43)C(=O)N2Cc2ccccc2Cl)C1C (stereo not given) | -2.01% | 4.85% | -2.47% | -4.47% | -6.99% |
| COc1ccccc1CCC(=O)N1CC(C(=O)N(C)C)C2(CCOCC2)C1 (stereo not given) | -1.63% | -4.75% | -0.745% | -6.22% | -1.56% |
| COc1ccc(CN2C(=O)c3cc4ccccc4n3CC2(C)C(=O)NCc2ccccc2)cc1OC (stereo not given) | -3.56% | 2.16% | -5.16% | -52.1% | -7.84% |
| CN(Cc1ccccc1)C(=O)CN(C)S(=O)(=O)c1ccc2[nH]c3c(c2c1)CCCC3 | -12.3% | -0.202% | -6.83% | -5.62% | -7.36% |
| c1ccc(-c2nnn3c2nc(NCCc2c[nH]c4ccccc24)c2ccccc23)cc1 | -10.7% | 1.7% | -4.03% | -4.82% | -3.5% |
| O[C@H]1CC[C@@H](Cc2cc(-c3ccccn3)on2)O[C@@H]1CN(Cc1ccccc1)Cc1ccccc1 | -2% | -0.427% | -0.11% | -2.43% | 0.346% |
| Cc1ccc(Cl)cc1N1CCN(S(=O)(=O)c2cccc(-c3nc(-c4ccccc4)no3)c2)CC1 | 12.3% | 0% | 8.76% | 2.81% | 3.62% |
| C[C@]12CC[C@H](O)CC1=CCC1C2CC[C@]2(C)C(n3cnc4ccccc43)=CCC12 (stereo not given in full) | -9.44% | -10.1% | -3.36% | -36.9% | -16.5% |
| COCCCN1C(=O)c2nc3ccccc3n2CC1(C)C(=O)NC1CCCC1 (stereo not given) | 3.77% | 4.92% | -1.42% | 4.54% | -3.07% |
| CC(C)Oc1ccc2c(NC(=O)c3ccc(=O)n(C)n3)nn(CC(F)(F)F)c2c1 | -2.08% | -6.68% | -1.87% | -4.64% | 1.68% |
| O=C(N1CCCCC1)C1(c2ccc(Cl)cc2)CCOCC1 | -2.77% | -8.55% | -0.951% | -17.4% | -10.2% |
| O=C(Nc1ccc2ncnc(N3CCCC3)c2c1)c1ccc(Cl)s1 | -14.2% | -8.33% | -22.9% | -18% | -7.64% |
| CN1C(=O)COC[C@@H]1[C@H](O)c1ccc(NC(=O)Nc2ccccc2)cc1 | -6.22% | -8.82% | -2.24% | -3.92% | -8.52% |
| Cc1ccc(Cn2c(=O)c3ccccc3n3c(CCC(=O)NCCCN4CCN(C)CC4)nnc23)cc1 | -6.98% | 3.04% | -35.6% | 2.96% | 1.94% |
| Cc1ccc(C)c(CC(=O)NCc2cc3n(n2)CCN(C(=O)N(C)C)C3)c1 | -4.39% | -2.26% | -1.27% | -10.1% | -4.66% |
